Measured values taken from the supplement of paper PMC3334620.
The full ranking holds about 33,000 sequences; the median of “E-score (-0.5 to 0.5)” is about -0.012, and the highest 2% start at about 0.29. The list shows a part of the results.

The sequences below were run against T1, Ybr033w (UniProt P38073) (assay: PBM E-score (8-mer binding enrichment) (E-score (-0.5 to 0.5)); higher = stronger / more preferred TF binding; most listed sequences are background and not binding sites). Settings: protein concentration: 200 nM; construct: GST-full length.
T1 sequence: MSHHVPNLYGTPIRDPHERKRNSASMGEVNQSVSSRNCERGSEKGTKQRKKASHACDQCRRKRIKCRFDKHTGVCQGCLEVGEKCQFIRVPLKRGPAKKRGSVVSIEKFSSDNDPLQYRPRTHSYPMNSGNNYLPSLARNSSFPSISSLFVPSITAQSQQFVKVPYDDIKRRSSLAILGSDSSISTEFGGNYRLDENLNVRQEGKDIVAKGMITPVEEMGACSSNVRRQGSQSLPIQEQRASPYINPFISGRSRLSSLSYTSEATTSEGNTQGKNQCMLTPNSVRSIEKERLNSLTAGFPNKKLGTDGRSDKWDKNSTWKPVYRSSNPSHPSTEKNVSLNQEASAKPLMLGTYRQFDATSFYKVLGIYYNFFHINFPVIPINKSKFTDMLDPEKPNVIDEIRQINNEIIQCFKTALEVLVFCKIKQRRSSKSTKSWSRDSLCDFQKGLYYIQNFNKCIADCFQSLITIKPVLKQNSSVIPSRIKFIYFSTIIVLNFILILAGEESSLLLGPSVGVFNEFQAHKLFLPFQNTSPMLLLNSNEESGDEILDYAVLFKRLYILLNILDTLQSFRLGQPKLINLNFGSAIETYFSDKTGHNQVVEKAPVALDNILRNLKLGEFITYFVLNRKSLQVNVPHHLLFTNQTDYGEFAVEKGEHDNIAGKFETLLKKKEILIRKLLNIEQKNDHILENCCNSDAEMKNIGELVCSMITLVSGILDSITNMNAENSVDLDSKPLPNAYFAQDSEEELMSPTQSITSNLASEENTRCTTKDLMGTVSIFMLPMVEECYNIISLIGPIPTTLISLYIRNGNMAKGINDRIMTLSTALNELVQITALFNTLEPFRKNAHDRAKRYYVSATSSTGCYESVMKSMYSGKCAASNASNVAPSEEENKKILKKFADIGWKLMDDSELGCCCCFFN
In short: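 Universal all-10-mer Agilent arrays, fresh or stripped once, were converted to double-stranded form by primer extension. GST-tagged yeast transcription factors from PURExpress in vitro transcription/translation, full-length or DNA-binding domain only, were applied at about 100-200 nM and detected with fluorescent anti-GST. After masliner normalisation, the Universal PBM Analysis Suite scored each ungapped eight-base word together with its reverse complement by E-score.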

In order of falling “PBM E-score” value:
1. ATTTTACC  0.362
2. AACTATAT  0.335
3. ATTTTACG  0.328
4. ATATTCAA  0.3
5. AACATATA  0.298
6. AATTAGAT  0.284
7. AATAAAAC  0.283
8. TTACTAAA  0.279
9. GTTTGAAA  0.253
10. AATTCACA  0.23
11. TAATAACA  0.226
12. ATTACTAA  0.225
13. GAACTAAA  0.215
14. ATACGTAT  0.207
15. AATTACCA  0.203
16. GATTGAGA  0.198
17. AATGTCTA  0.194
18. TTGCAAAA  0.192
19. CAAGTTAC  0.19
20. GCGATTAA  0.19
21. ATAGATCC  0.186
22. AACTTTAT  0.184
23. CAAAAAGA  0.182
24. GCCACATA  0.174
25. CAACGTTA  0.173
26. ATTATGTC  0.17
27. AAGATTTC  0.169
28. CTAAGTAG  0.168
29. AGCTCCAA  0.165
30. AACGATAC  0.15
31. AAATGCGG  0.148
32. GTTTGGAA  0.144
33. ATCAACCC  0.144
34. AGAATACC  0.143
35. TGTAGCAA  0.142
36. ATAGATTC  0.135
37. TAGTTTAA  0.135
38. ACCCTGCA  0.133
39. GAGACTGA  0.133
40. TAACCCTA  0.132
41. CATTTCCG  0.12
42. ACCATTTG  0.116
43. AACCTACT  0.111
44. ATACTATG  0.111
45. AATGTTAA  0.106
46. ACAATGTG  0.103
47. AGACGAGA  0.0985
48. ATAATGGA  0.0954
49. GAATCGAC  0.0824
50. ATAGGCGG  0.0815
51. ATCAAGCG  0.0814
52. AAAATGAA  0.081
53. GTCACTAA  0.0794
54. AACTCATT  0.0776
55. GTCAGAAA  0.0734
56. CCTAAGAA  0.0716
57. GAAGGATC  0.0683
58. CATTTGGA  0.0587
59. CGCGACAC  0.0555
60. AGAGTTCA  0.0551
61. CTACGACA  0.0516
62. CTTGCGCA  0.049
63. ACTTCTCA  0.0478
64. CTCGGAGC  0.0468
65. ATTACCGC  0.0454
66. CAACATGG  0.0405
67. AGTAGCTG  0.0396
68. GCCGAAAC  0.0384
69. TAGTCTCA  0.0372
70. GTATTGGA  0.037
71. GAGGCGTA  0.0335
72. GGCTAAAA  0.033
73. CGCTTACA  0.0289
74. CTTGGGCA  0.0253
75. AACGATTA  0.0219
76. CACCACCA  0.0182
77. GGCAAGTA  0.0178
78. CTAACCTA  0.0168
79. ACCGGATC  0.0115
80. CGAAGTGC  0.00932
81. CGACGGAC  0.00464
82. AGACAAAG  0.00167
83. ACCCATTC  0.00112
84. GATGTGTA  0.00086
85. ATCATCTG  -0.0103
86. TCAAGGGA  -0.0131
87. GTATTCCA  -0.0248
88. CCTCTAAC  -0.0254
89. AGCTTGAA  -0.0326
90. CCTTATGA  -0.0328
91. ACATGCTG  -0.0338
92. CTAAGTTC  -0.0342
93. AGTGCGTA  -0.0382
94. AAGGTTGG  -0.0428
95. CGAATGAG  -0.0437
96. CTACACAC  -0.0439
97. ACTGCGAT  -0.045
98. TCAGACCA  -0.0453
99. ACGATCCA  -0.048
100. CATGCATG  -0.0573
101. CAAGCAAG  -0.0591
102. GCCATGTA  -0.0592
103. CTTAGTCA  -0.0627
104. CGAGGAAG  -0.0631
105. AGACCGCA  -0.0665
106. AGGGCTGG  -0.0666
107. GCAATGCC  -0.0686
108. GGAGATCC  -0.0693
109. CAATACCG  -0.0706
110. GGACAAGA  -0.0717
111. AGTGGCCA  -0.073
112. GACAGTGC  -0.0743
113. GATAGTCC  -0.0766
114. ACCCAGAG  -0.0801
115. AATAAGCG  -0.0835
116. CAGTAATC  -0.0846
117. CATTTCGC  -0.0878
118. CGCTTCCA  -0.0888
119. CACCGACC  -0.0888
120. CCTTAACG  -0.0917
121. ACTGACAT  -0.0918
122. AAGCTTCC  -0.092
123. CGAGACTC  -0.0955
124. ACCACGTA  -0.0972
125. ACATGCGT  -0.104
126. GCTCACCA  -0.109
127. CCACTCCG  -0.112
128. CCCGCCAG  -0.117
129. CTTTGCGC  -0.119
130. CGCTTACC  -0.123
131. CCACGTAA  -0.124
132. CGTGCAGC  -0.125
133. CGTGCTAG  -0.127
134. CGTGAGCA  -0.128
135. AAAAGTGT  -0.129
136. CATGATTC  -0.131
137. CGTTAGGC  -0.135
138. CCCGTAGC  -0.135
139. CCATTGGA  -0.137
140. GGAGCGCA  -0.142
141. AGGCGCGA  -0.143
142. AAGCTACG  -0.148
143. CGTGATGC  -0.151
144. CCTTTCAG  -0.166
145. CGGGATGC  -0.167
146. ACACAACC  -0.169
147. CGTGTCAA  -0.172
148. GGACAGAC  -0.174
149. GGGACGTA  -0.176
150. CCTGGCAA  -0.178
151. AGTACCGG  -0.182
152. ATGGCACG  -0.185
153. GACCGGGC  -0.187
154. GCCCATAA  -0.191
155. GGGCAGGA  -0.198
156. ATCGGCGA  -0.203
157. CCTAGGCG  -0.207
158. AAGGGTGC  -0.214
159. GCATCGCA  -0.229
160. ACCCCACA  -0.236
161. CAGTCCCG  -0.248
162. GTCCCCCA  -0.251
163. CTGTAGCC  -0.264
164. GGCCTCGA  -0.296
165. GCTCCCCA  -0.305
166. GAGGTCGC  -0.307
167. CGGGGGGA  -0.321
168. CCGACGGC  -0.324
169. GGGGGCCA  -0.335
170. GACCCGTC  -0.337
171. GACGGGGC  -0.347
172. GCTTCCCC  -0.414
